Our source for the enrichment score values is the supplement of paper PMC10369915.

This is one part of the list. Rule as the data show it: active = 3.2 or more and inactive = the rest. Most of these values are background signal.
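Also: displayed peptides selected on beads carrying the immobilized SH2 domain, with library peptides lacking any tyrosine serving as negative controls.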

The first test deals with SHP2 C-SH2 domain E139D. The test can be described thus: enrichment score (SH2-bound / input frequency) (ratio); bacterial display of known human phosphotyrosine sites (pTyr-Var adds point mutants) read by sequencing; higher = stronger binding; tyrosines were phosphorylated by kinases first. As to conditions: peptide library: pTyr-Var.
For RSHLSYDVTPE [IQGAP3_Y1098_P1097S], the enrichment score is inactive: 0.817.

Turning to APTSGYQEFVH [IL4R_Y575], the enrichment score was inactive: 0.661.

With ARTNEYKIIRS [INA_Y87_T92S], the enrichment score was inactive: 0.621.

TGNPAYRSFSN [IL4R_Y497_A492T]: the enrichment score is inactive: 0.492.

For APTSGYQEFIH [IL4R_Y575_V579I], the enrichment score was inactive: 0.952.

Consider CQLENYCNGGG [INS_Y108_Y103C], for which the enrichment score was inactive: 2.55.

For the molecule DISEPYEVFRI [IRF8_Y107_K108E_YF], the enrichment score was inactive: 0.964.

Turning to RRIEKYVDQGK [IRAK3_Y61_H57R], the enrichment score was inactive: 0.413.

Take SFGMVYEGNAR [INSR_Y1038]: the enrichment score is inactive: 0.571.

As for EKFVPYYDLFM [IPO5_Y530], the enrichment score was inactive: 1.2.

Turning to FNNPAYYVLEG [INPPL1_Y986], the enrichment score is inactive: 0.889.

As to EEHIPYTHMNG [INSR_Y1361], the enrichment score was inactive: 0.614.

With IYETDYYRKGG [INSR_Y1189], the enrichment score was inactive: 0.6.

Consider AGNPAYRSFSN [IL4R_Y497], for which the enrichment score was inactive: 0.613.

For the molecule YQLENYCNGGG [INS_Y108], the enrichment score is inactive: 0.664.

As to SSNTEYLSASD [INSR_Y999_P997T], the enrichment score was inactive: 0.444.

Consider LTNDRYLATLT [IL6ST_Y396], for which the enrichment score is inactive: 0.858.

Consider NNPAFYVLEGV [INPPL1_Y987_YF], for which the enrichment score is inactive: 0.966.

The next test has as its target SHP2 C-SH2 domain wild-type. The description is as above. Particulars: peptide library: pTyr-Var.
For RSHLSYDVTPE [IQGAP3_Y1098_P1097S], the enrichment score is inactive: 0.707.

In the case of APTSGYQEFVH [IL4R_Y575], the enrichment score was inactive: 0.514.

Consider ARTNEYKIIRS [INA_Y87_T92S], for which the enrichment score is inactive: 0.617.

For TGNPAYRSFSN [IL4R_Y497_A492T], the enrichment score is inactive: 0.443.

Take APTSGYQEFIH [IL4R_Y575_V579I]: the enrichment score is inactive: 0.561.

CQLENYCNGGG [INS_Y108_Y103C]: the enrichment score was inactive: 2.42.

As to DISEPYEVFRI [IRF8_Y107_K108E_YF], the enrichment score was inactive: 0.77.

For the molecule RRIEKYVDQGK [IRAK3_Y61_H57R], the enrichment score is inactive: 0.22.

Regarding SFGMVYEGNAR [INSR_Y1038], the enrichment score was inactive: 0.653.

As to EKFVPYYDLFM [IPO5_Y530], the enrichment score is inactive: 1.06.

On to FNNPAYYVLEG [INPPL1_Y986], for which the enrichment score was inactive: 0.864.

Turning to EEHIPYTHMNG [INSR_Y1361], the enrichment score is inactive: 0.657.

IYETDYYRKGG [INSR_Y1189]: the enrichment score is inactive: 0.551.

As for AGNPAYRSFSN [IL4R_Y497], the enrichment score is inactive: 0.635.

Take YQLENYCNGGG [INS_Y108]: the enrichment score is inactive: 0.578.

In the case of SSNTEYLSASD [INSR_Y999_P997T], the enrichment score was inactive: 0.58.

As to LTNDRYLATLT [IL6ST_Y396], the enrichment score was inactive: 0.853.

For NNPAFYVLEGV [INPPL1_Y987_YF], the enrichment score is inactive: 0.955.

A further test concerns the target SHP2 N-SH2 domain L43F. The test is described as above. As to conditions: peptide library: pTyr-Var.
Take RSHLSYDVTPE [IQGAP3_Y1098_P1097S]: the enrichment score was inactive: 0.89.

APTSGYQEFVH [IL4R_Y575]: the enrichment score is inactive: 0.545.

ARTNEYKIIRS [INA_Y87_T92S]: the enrichment score was inactive: 0.427.

With TGNPAYRSFSN [IL4R_Y497_A492T], the enrichment score was inactive: 0.466.

As for APTSGYQEFIH [IL4R_Y575_V579I], the enrichment score is inactive: 0.886.

With CQLENYCNGGG [INS_Y108_Y103C], the enrichment score is inactive: 2.78.

On to DISEPYEVFRI [IRF8_Y107_K108E_YF], for which the enrichment score was inactive: 0.696.

Consider RRIEKYVDQGK [IRAK3_Y61_H57R], for which the enrichment score was inactive: 0.3.

On to SFGMVYEGNAR [INSR_Y1038], for which the enrichment score is inactive: 0.718.

Turning to EKFVPYYDLFM [IPO5_Y530], the enrichment score is inactive: 1.15.

For the molecule FNNPAYYVLEG [INPPL1_Y986], the enrichment score was inactive: 1.09.

Turning to EEHIPYTHMNG [INSR_Y1361], the enrichment score is inactive: 0.671.

Take IYETDYYRKGG [INSR_Y1189]: the enrichment score was inactive: 0.531.

Turning to AGNPAYRSFSN [IL4R_Y497], the enrichment score was inactive: 0.502.

Turning to YQLENYCNGGG [INS_Y108], the enrichment score is inactive: 0.772.

SSNTEYLSASD [INSR_Y999_P997T]: the enrichment score was inactive: 0.465.

In the case of LTNDRYLATLT [IL6ST_Y396], the enrichment score is inactive: 0.824.

For the molecule NNPAFYVLEGV [INPPL1_Y987_YF], the enrichment score was inactive: 0.98.

In a further test the target is SHP2 N-SH2 domain T42A. The description is as above. As to conditions: peptide library: pTyr-Var.
With RSHLSYDVTPE [IQGAP3_Y1098_P1097S], the enrichment score is inactive: 0.516.

Take APTSGYQEFVH [IL4R_Y575]: the enrichment score is inactive: 0.55.

With ARTNEYKIIRS [INA_Y87_T92S], the enrichment score is inactive: 0.73.

With TGNPAYRSFSN [IL4R_Y497_A492T], the enrichment score was inactive: 0.474.

Consider APTSGYQEFIH [IL4R_Y575_V579I], for which the enrichment score is inactive: 0.794.

For CQLENYCNGGG [INS_Y108_Y103C], the enrichment score was inactive: 1.79.

With DISEPYEVFRI [IRF8_Y107_K108E_YF], the enrichment score was inactive: 0.602.

Regarding RRIEKYVDQGK [IRAK3_Y61_H57R], the enrichment score was inactive: 0.307.

As to SFGMVYEGNAR [INSR_Y1038], the enrichment score was inactive: 0.643.

Consider EKFVPYYDLFM [IPO5_Y530], for which the enrichment score was inactive: 2.27.

As to FNNPAYYVLEG [INPPL1_Y986], the enrichment score was inactive: 0.825.

With EEHIPYTHMNG [INSR_Y1361], the enrichment score was inactive: 0.608.

As to IYETDYYRKGG [INSR_Y1189], the enrichment score was inactive: 0.675.

On to AGNPAYRSFSN [IL4R_Y497], for which the enrichment score was inactive: 0.553.

As to YQLENYCNGGG [INS_Y108], the enrichment score is inactive: 0.578.

For SSNTEYLSASD [INSR_Y999_P997T], the enrichment score was inactive: 0.434.

On to LTNDRYLATLT [IL6ST_Y396], for which the enrichment score is inactive: 0.736.

Consider NNPAFYVLEGV [INPPL1_Y987_YF], for which the enrichment score is inactive: 0.886.

The target of a further test is SHP2 N-SH2 domain T52S. The test is described as above. As to conditions: peptide library: pTyr-Var.
On to RSHLSYDVTPE [IQGAP3_Y1098_P1097S], for which the enrichment score was inactive: 0.855.

Turning to APTSGYQEFVH [IL4R_Y575], the enrichment score is inactive: 0.539.

For the molecule ARTNEYKIIRS [INA_Y87_T92S], the enrichment score is inactive: 0.592.

Consider TGNPAYRSFSN [IL4R_Y497_A492T], for which the enrichment score was inactive: 0.592.

On to APTSGYQEFIH [IL4R_Y575_V579I], for which the enrichment score is inactive: 0.669.

For CQLENYCNGGG [INS_Y108_Y103C], the enrichment score was inactive: 2.48.

For DISEPYEVFRI [IRF8_Y107_K108E_YF], the enrichment score was inactive: 0.811.

On to RRIEKYVDQGK [IRAK3_Y61_H57R], for which the enrichment score was inactive: 0.279.

For the molecule SFGMVYEGNAR [INSR_Y1038], the enrichment score is inactive: 0.831.

Turning to EKFVPYYDLFM [IPO5_Y530], the enrichment score was inactive: 1.33.

Consider FNNPAYYVLEG [INPPL1_Y986], for which the enrichment score was inactive: 0.79.

As for EEHIPYTHMNG [INSR_Y1361], the enrichment score is inactive: 0.617.

For the molecule IYETDYYRKGG [INSR_Y1189], the enrichment score is inactive: 0.661.

On to AGNPAYRSFSN [IL4R_Y497], for which the enrichment score was inactive: 0.611.

As for YQLENYCNGGG [INS_Y108], the enrichment score was inactive: 0.387.

Regarding SSNTEYLSASD [INSR_Y999_P997T], the enrichment score was inactive: 0.475.

For the molecule LTNDRYLATLT [IL6ST_Y396], the enrichment score is inactive: 0.871.

Regarding NNPAFYVLEGV [INPPL1_Y987_YF], the enrichment score was inactive: 1.11.

Another test deals with SHP2 N-SH2 domain wild-type. The test is described as above. As to conditions: peptide library: pTyr-Var.
As for RSHLSYDVTPE [IQGAP3_Y1098_P1097S], the enrichment score is inactive: 0.847.

Take APTSGYQEFVH [IL4R_Y575]: the enrichment score was inactive: 0.82.

On to ARTNEYKIIRS [INA_Y87_T92S], for which the enrichment score was inactive: 0.515.

In the case of TGNPAYRSFSN [IL4R_Y497_A492T], the enrichment score was inactive: 0.831.

In the case of APTSGYQEFIH [IL4R_Y575_V579I], the enrichment score is inactive: 1.04.

For the molecule CQLENYCNGGG [INS_Y108_Y103C], the enrichment score is inactive: 2.37.

On to DISEPYEVFRI [IRF8_Y107_K108E_YF], for which the enrichment score was inactive: 0.81.

Consider RRIEKYVDQGK [IRAK3_Y61_H57R], for which the enrichment score was inactive: 0.325.

Regarding SFGMVYEGNAR [INSR_Y1038], the enrichment score was inactive: 0.816.

For EKFVPYYDLFM [IPO5_Y530], the enrichment score is inactive: 1.06.

As to FNNPAYYVLEG [INPPL1_Y986], the enrichment score was inactive: 0.876.

Consider EEHIPYTHMNG [INSR_Y1361], for which the enrichment score is inactive: 0.795.

As to IYETDYYRKGG [INSR_Y1189], the enrichment score was inactive: 0.497.

For AGNPAYRSFSN [IL4R_Y497], the enrichment score is inactive: 0.527.

For YQLENYCNGGG [INS_Y108], the enrichment score was inactive: 0.488.

Consider SSNTEYLSASD [INSR_Y999_P997T], for which the enrichment score was inactive: 0.534.

For LTNDRYLATLT [IL6ST_Y396], the enrichment score is inactive: 0.776.

With NNPAFYVLEGV [INPPL1_Y987_YF], the enrichment score is inactive: 1.
